Reference: PubChem BioAssay AID1030 (National Center for Advancing Translational Sciences (NCATS), 2008)
About 16,000 (7.3%) of roughly 220,000 compounds were called active. This list was built around the results that the source calls inconclusive (neither active nor inactive); the mix of calls is not that of the screen. Calls follow the shape of the dose curve; as a rule, active = well fitted inhibition curve with a large enough effect (not every such curve was filed as active); inconclusive = small, poorly fitted or top-dose-only effect, or another doubt; inactive = no such curve, though single readings can be large or run the other way. No potency is given beside an inconclusive call; the fits are too rough.

What follows are compounds tested against Aldehyde dehydrogenase 1A1 (Homo sapiens) (UniProt P00352) (assay: qHTS Assay for Inhibitors of Aldehyde Dehydrogenase 1 (ALDH1A1)). Conditions: Purified ALDH1A1, NADH fluorescence, propionaldehyde substrate; series mostly up to 75.3 µM; activity, negative = inhibition: at the top concentration.
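For activity, negative = inhibition in this document: plate controls were no enzyme wells and a reference inhibitor.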
Potency is read from the fitted curve at half-maximal effect; tags tell the direction and shape of the fitted curve.

UniProt P00352, sequence (P00352 whole entry, looked up): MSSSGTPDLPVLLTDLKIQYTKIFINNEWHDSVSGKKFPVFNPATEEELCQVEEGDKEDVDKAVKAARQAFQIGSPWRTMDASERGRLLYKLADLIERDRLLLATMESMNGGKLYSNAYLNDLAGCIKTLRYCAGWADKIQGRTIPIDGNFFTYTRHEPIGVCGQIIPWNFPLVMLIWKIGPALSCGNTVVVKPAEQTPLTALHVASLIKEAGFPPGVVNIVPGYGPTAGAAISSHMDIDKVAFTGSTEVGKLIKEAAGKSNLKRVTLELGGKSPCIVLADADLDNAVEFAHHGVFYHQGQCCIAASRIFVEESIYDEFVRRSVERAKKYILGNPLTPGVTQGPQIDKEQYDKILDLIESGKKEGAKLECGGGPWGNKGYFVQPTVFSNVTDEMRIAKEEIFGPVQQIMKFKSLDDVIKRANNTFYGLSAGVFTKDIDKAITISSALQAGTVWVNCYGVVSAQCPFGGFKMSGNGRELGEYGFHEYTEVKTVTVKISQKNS

Compound	activity, negative = inhibition	Potency
Cc1ccc(C(=O)NNC(=O)CCCN2C(=O)/C(=C/c3ccccc3Cl)SC2=S)cc1	inactive: -0.832%	
O=S(=O)(c1ccccc1)N1CCN(c2cc(-c3ccccc3)nc3ncnn23)CC1		inconclusive [inhibitor, single point]
O=C(N=c1nc2ccccn2s1)c1ccccc1	inactive: 2.22%	
CCOC(=O)C1=C(C)Nc2nc3ccccc3n2C1c1cccs1 (stereo not drawn)	inactive: 2.54%	
N#CC1=C(N)NC(SCC(=O)Nc2ccccc2)=C(C#N)C12CCCC2		active: 4.47 µM
CCN1C(=O)c2ccc(C(=O)NCc3ccccc3)cc2C1=O		active: 4.47 µM
Cc1cc2oc(=O)cc(-c3ccccc3)c2c(C)c1/C=C/c1ccc(F)cc1	inactive: 1.81%	
CC1(C)CC2CC(C)(CN2S(=O)(=O)c2ccc(C(=O)Nc3ccc(Cl)c(S(=O)(=O)N4CCOCC4)c3)cc2)C1 (stereo not drawn)		inconclusive [inhibitor, single point]
CCCCn1c(SCC(=O)N2CCCCC2C)nc2cc(S(N)(=O)=O)ccc21 (stereo not drawn)		inconclusive [inhibitor, partial curve]
Cc1ccco1	inactive: 3.31%	
Cc1ccc(-n2c([C@@H]3C[C@H]3c3ccccc3)n[nH]c2=S)cc1		inconclusive [inhibitor, single point]
CCOCC(=O)Nc1nc2ccccc2s1		active: 22.4 µM
Cn1c(SCc2nc3ccccc3s2)nnc1-c1cccs1		inconclusive [inhibitor, single point]
COC(=O)[C@@]1(Cc2ccc(F)cc2)[C@H]2c3cc(C(=O)N4CCCC4)n(CCc4c[nH]c5ccccc45)c3C[C@H]2CN1C(=O)c1ccccc1	inactive: 1.59%	
O=C(NC1CCCCC1)C(c1ccc(F)cc1)N(Cc1ccc2c(c1)OCO2)C(=O)c1cnsn1 (stereo not drawn)	inactive: 14.4%	
C=CC1C(N2CCOCC2)C(C)(C)S1(=O)=O (stereo not drawn)	inactive: 2.42%	
COc1ccc2c(c1)c(C(=O)N/N=C/c1ccc(O)c(O)c1)c(C)n2C	inactive: -14.1%	
C/C(=N/OC(=O)c1ccc(Cl)cc1Cl)c1oc(C)nc1C	inactive: 15.6%	
O=C(NCc1cccc2ccccc12)[C@H]1C[C@@H]1[C@H](NP(=O)(c1ccccc1)c1ccccc1)c1ccccc1		inconclusive [inhibitor, partial curve]
O=C(C1CCC1)N1CCN(Cc2ccccc2)CC1	inactive: -2.4%	
CCOC(=O)c1ccccc1OC(=O)CS(=O)c1ccccc1[N+](=O)[O-] (stereo not drawn)		active: 22.4 µM
COc1ccc(-n2nnnc2SCC(N)=O)cc1	inactive: 1.04%	
CCSc1nnc(NC(=O)c2cc(C)oc2C)s1		inconclusive [inhibitor, partial curve]
